Assay results reported in patent US20240247069A1, “FGFR3 BINDING MOLECULES AND METHODS OF USE THEREOF” (Regeneron Pharmaceuticals, Inc., priority 2023, published 2024).

How the values were obtained:
Format in all cases: cell-based
[1] = tested on: BaF3 cells expressing FGFR3 S249C; assay: BaF3 cell proliferation, FGFR3 S249C; settings: 72 hours
Excerpt: cDNA expressing FGFR3 mutants (S249C, S248C, Y375C, V555M, V555L, S249C+V555M, or S249C+V555L) were synthesized and cloned into pLVX Lenti-viral vector (Thermo Fisher). Viral particles were generated by lipofectamine transfection of LentiX 293T cells using Lenti-X packaging single shots following manufacturer's protocol (Clontech/Takara) and concentrated using Lenti-X concentrator and titer determined using Lenti-X p24 rapid titer kit (Clontech/Takara). BaF3 cells were transduced with virus at ˜0.3 MOI. Expression of FGFR3 receptors was confirmed by FACS analysis and western blot.
For cell proliferation assays, engineered BaF3/hFGFR3 cells grown in complete medium were washed and plated in IL-3-free culture media±5 μg/ml heparin and 1 nM human FGF1. Cells were plated out at 1×10^5 cells/well into 96-well plates, followed by the addition of 1:3 serially diluted antibodies as indicated in figures. After addition of antibodies, cells were incubated at 37° C. for 72 h followed by the addition of CellTiter-Glo™ (Promega) reagent. The luminescent signal was detected by Envision plate reader (PerkinElmer). Data was analyzed using Prism software (GraphPad).
Heparin has been implicated in disulfide formation between FGFR3 S249C monomers. […] The levels of phospho-MAPK (pMAPK) and total MAPK were determined by western blot as described in Section 8.1.5.

FGFR3 S249C = biological target: T1, FGFR3 S249C (Homo sapiens, UniProt P22607, S249C); assay: Western blot of FGFR3 receptor dimerization in UMUC14 cells; settings: 33 nM, 3 hours, non-reducing SDS-PAGE
T1 construct: UMUC14 cells, which endogenously express the FGFR3 S249C mutation; endogenous in cells; host or cells: UMUC14 (Sigma-Aldrich)
Description: For receptor dimerization assessments, UMUC14 bladder cancer cells or BaF3 cells were seeded in 6 well tissue culture plate (Corning) in complete medium (MEM medium with 10% FBS, 1% non-essential amino acids, Glutamine, Pen/Strep) and cultured overnight at 37° C. with 5% CO2. Cells were then serum starved overnight in starvation medium (MEM medium with 0.5% FBS, Pen/Strep) followed by antibody treatment for 3 hours at indicated concentrations. Equal amounts of cell lysates were analyzed by either reducing or non-reducing SDS-PAGE. Membranes were blotted with anti-FGFR3 primary antibody (Santa Cruz) and developed with SuperSignal West Pico substrate (Pierce) and luminescence images were captured with a C300 imager (Azure Biosystems).
To gain insight into the mechanisms of antiproliferative activity of BiP063N2, effects of antibodies on FGFR3 receptor dimerization, degradation, and downstream signaling were evaluated by western blot as described in Section 8.1.5. UMUC14 cells, which endogenously express the FGFR3 S249C mutation, were treated with indicated antibodies at 33 nM for 3 hours. After treatment, FGFR3 monomers and disulfide-linked dimers were separated via a non-reducing SDS-polyacrylamide gel (FIG. 6A, top). The mobilities of the monomeric and dimeric FGFR3 are indicated.

[2] = tested on: MAPK phosphorylation in BaF3 cells expressing Y375C hFGFR3b; assay: Western blot of FGF1/heparin induced MAPK phosphorylation in BaF3 Y375C hFGFR3b cells; settings: 100 nM antibody overnight; 100 nM FGF1 + 10 μg/ml heparin 15 min
Description: To evaluate receptor phosphorylation and downstream signaling, cells were serum starved overnight in the presence or absence of indicated antibodies followed by ligand (100 ng/ml human FGF1 and 10 μg/ml heparin) stimulation for 15 min at 37° C. Equal amounts of cell lysates were analyzed by SDS-PAGE. Blots were incubated with pMAPK, MAPK or actin antibodies followed by incubation with HRP secondary antibody. For FGFR3 phosphorylation, equal amounts of cell lysates were incubated with pY100 Sepharose beads overnight and non-specific binding was removed by washes with lysis buffer. Immunoprecipitated proteins were analyzed by reducing or non-reducing SDS-PAGE and blotted with FGFR3 antibody.

T1 sequence (P22607 23-808 isoform P22607-2 S249C limits assumed): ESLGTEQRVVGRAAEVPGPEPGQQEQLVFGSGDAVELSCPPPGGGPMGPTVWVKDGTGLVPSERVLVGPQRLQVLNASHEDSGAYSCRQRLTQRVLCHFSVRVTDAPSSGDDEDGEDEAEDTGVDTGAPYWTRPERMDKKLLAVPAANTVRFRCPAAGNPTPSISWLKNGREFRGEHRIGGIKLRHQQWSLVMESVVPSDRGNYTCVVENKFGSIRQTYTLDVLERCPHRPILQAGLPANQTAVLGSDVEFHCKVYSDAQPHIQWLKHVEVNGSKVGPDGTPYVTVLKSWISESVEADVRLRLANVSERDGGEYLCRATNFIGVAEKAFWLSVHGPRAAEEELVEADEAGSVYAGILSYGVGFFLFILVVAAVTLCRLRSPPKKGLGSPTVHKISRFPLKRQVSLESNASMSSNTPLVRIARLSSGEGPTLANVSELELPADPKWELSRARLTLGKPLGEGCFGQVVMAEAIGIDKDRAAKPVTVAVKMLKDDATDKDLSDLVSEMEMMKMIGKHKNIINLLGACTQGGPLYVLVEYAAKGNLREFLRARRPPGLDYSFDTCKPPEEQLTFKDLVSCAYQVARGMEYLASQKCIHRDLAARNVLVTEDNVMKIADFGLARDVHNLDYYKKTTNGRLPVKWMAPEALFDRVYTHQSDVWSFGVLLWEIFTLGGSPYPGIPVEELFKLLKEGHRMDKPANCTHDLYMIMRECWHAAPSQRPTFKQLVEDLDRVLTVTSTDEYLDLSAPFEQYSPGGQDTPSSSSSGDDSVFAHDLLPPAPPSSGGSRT

B1: mAb063: parental anti-FGFR3 antibody; anchor or additional arm; parent of BiP063N2 (antibody)
heavy: QVQLQESGPGLVKPSETLSLTCTVSGDSINSYFWSWIRQLPGKELEWIGHIYSSGSTRYNPSLQSRVTISIDTSKNQFSLKLSSVTAADTAVYYCARGASAVDYWGQGTLVTVSSASTKGPSVFPLAPCSRSTSESTAALGCLVKDYFPEPVTVSWNSGALTSGVHTFPAVLQSSGLYSLSSVVTVPSSSLGTKTYTCNVDHKPSNTKVDKRV[human IgG4 Fc with S228P (EU numbers) cut from this listing]
light: EIVLTQSPGTLSLSPGERATLSCRTSQSISSGYLAWYQQKPGQAPRLLIYGASRRATGIPDRFSGSGSGTDFTLTISRLEPEDFVVYYCQQYGSSPYTFGQGTKLEIKRTVAAPSVFIFPPSDEQLKSGTASVVCLLNNFYPREAKVQWKVDNALQSGNSQESVTEQDSKDSTYSLSSTLTLSKADYEKHKVYACEVTHQGLSSPVTKSFNRGEC
For B1, the “effect on proliferation of hFGF1/heparin treated BaF3 cells” value [1] was “able to inhibit the proliferation”, the “effect on FGFR3 S249C receptor dimerization” value (FGFR3 S249C) was “potently inhibited receptor dimer formation” and the “pMAPK after FGF1/heparin stimulation, Y375C hFGFR3b” value [2] was “small increase in pMAPK levels”.
